According to PubChem BioAssay AID1347073 (National Center for Advancing Translational Sciences (NCATS), 2019):
Among all 45,000 compounds or so, about 200 (0.44%) were called active. Another 7% or so got no clear call; they are omitted. The call rests on the fitted dose curve; in most records, active means well fitted activation curve with a large enough effect; inconclusive means small, poorly fitted or top-dose-only effect; inactive means no such curve, though single readings can be large or run the other way. The list shows a part of the results.

Experiment: qHTS of TDP-43 Inhibitors: NCGC Sytravon Library Screen; further: 0% is about no effect; nearly all actives have a fitted effect of over 55% in size
Conditions: yeast TDP-43 toxicity rescue, BacTiter-Glo growth, 24 h; series mostly up to 46.1 µM; growth rescue (activation): at the top concentration
Excerpt: The goal of this project is to identify new chemical probes capable of reversing the toxicity associated with TDP-43 which is associated with frontotemporal lobar degeneration and amyotrophic lateral sclerosis. These compounds will provide a complementary approach to deciphering the tangled mechanisms of toxicity and protection that we have uncovered through genome-wide genetic screens and are beginning to uncover in a large-scale proteomics analysis with mass spectroscopy. To this end, a miniaturized assay was developed to be screened against the Molecular Libraries Small Molecule Repository (MLSMR) to discover TDP-43 inhibitors. Please note that in the set-up this yeast-based assay compounds that inhibit as TDP-43, have a read-out as activators. NIH Chemical Genomics Center [NCGC] NIH Molecular Libraries Probe Centers Network [MLPCN] Assay Submitter (PI): Susan Lindquist, Whitehead Institute/MIT MLPCN Grant: R21 NS060957
Dispense 2.5 microL yeast galactose medium per 1536-well plate, pin compound, dispense 2.5 microL TDP-43 expressing yeast in galactose medium at OD600=0.02 (pregrown in raffinose medium to mid-log phase) per well, incubate for 24 hr at 30 deg C, and cell growth will be measured using 5 microL of Bactiter/Glo reagent to entire plate and read using Luminescence Protocol in ViewLux.

| SMILES | growth rescue (activation) |
| --- | --- |
| COc1ccccc1C1C2=C(CC(C)(C)CC2=O)Nc2nnnn21 (stereo not drawn) | inactive: -4.86% |
| CC1=NN(c2nc(-c3ccccc3)cs2)C(=O)C1N=Nc1ccccc1 (stereo not drawn) | inactive: 11.5% |
| NS(=O)(=O)c1ccc(CCNc2nc(C(F)(F)F)nc3ccccc23)cc1 | inactive: 10.7% |
| Cc1sc2ncn(CCn3cnc4sc(C)c(C)c4c3=O)c(=O)c2c1C | inactive: -0.822% |
| Cc1ccc(C2=NC3(CCCC3)NC2=S)cc1 | inactive: 25% |
| CC(C)OC(=O)C[N+](C)(C)CCN1C(=O)C2C(c3ccccc3)C=CC(c3ccccc3)C2C1=O (stereo not drawn) | inactive: 11% |
| COCc1cccc(C(=O)NC(c2ccccc2)c2ccccc2)c1 | inactive: 15.9% |
| COc1ccccc1N1CN(S(=O)(=O)c2ccc(C)cc2)c2nc3ccccc3nc21 | inactive: 10.7% |
| Cc1cccc(N(CC(=O)Nc2ccc(-c3nc4ccc(C)cc4s3)cc2)S(C)(=O)=O)c1 | inactive: 14% |
| CS(=O)(=O)N1CCCC(C(=O)Nc2ccccc2F)C1 (stereo not drawn) | inactive: 7.63% |
| Cc1cc(C)c(NC(=O)c2ccccc2C(=O)c2ccccc2)c(C)c1 | inactive: -12.2% |
| COc1ccc(NC(=O)C2CCC(CNS(=O)(=O)c3cccs3)CC2)cc1OC (stereo not drawn) | inactive: 5.16% |
| Cc1ccc(NC(=O)CN2C(=O)NC(C)(c3ccc(Cl)cc3)C2=O)c(Br)c1 (stereo not drawn) | inactive: 12.8% |
| Cc1ccc(C)c(N2CC(C(=O)Nc3nccs3)CC2=O)c1 (stereo not drawn) | inactive: -6.02% |
| Cc1ccc(OCCC(=O)N2CCN(c3ccc(O)cc3)CC2)cc1 | inactive: 20.9% |
| COc1ccc(N(CC(=O)NCC2CCCO2)S(=O)(=O)c2ccccc2)cc1OC (stereo not drawn) | inactive: -2.11% |
| Cc1nc2ccccc2nc(C)c1=NOCC(=O)N(c1ccccc1)C(C)C | inactive: 7.41% |
| CC(=O)c1ccc(OC2(C)CCN(Cc3ccc4ccccc4c3)C2)cc1 (stereo not drawn) | inactive: -18.4% |
| CCCN1CCC(NC(=O)Nc2ccc([N+](=O)[O-])cc2)CC1 | inactive: -5.51% |
| CC(C)(O)C#Cc1ccc(CN2CCN(Cc3ccsc3)C(CCO)C2)s1 (stereo not drawn) | inactive: 12% |
| O=[N+]([O-])c1ccc(/C=N/NC(=S)Nc2ccccc2)o1 | inactive: 17.2% |
| CCOC(=O)c1cc(-c2ccc([N+](=O)[O-])cc2)nc2c1c(=O)[nH]c(=O)n2Cc1ccccc1 | inactive: 7.44% |
| CN(C)c1ccc(/C=N/n2c(-c3ccccc3Br)n[nH]c2=S)cc1 | inactive: 6.59% |
| O=C(Nc1ccc(Cl)cc1)C1C2C=CC3(O2)C1C(=O)N(CCN1CCCCC1)C3C(=O)NC1CCCCC1 (stereo not drawn) | inactive: 19.3% |
| COc1ccccc1NC(=O)CNC(c1ccccc1)c1ccccc1 | inactive: 14.7% |
| O=C(CCS(=O)(=O)c1ccccc1)Nc1nnc(C(F)(F)F)s1 | inactive: -4.93% |
| COCC(=O)NNS(=O)(=O)c1ccccc1[N+](=O)[O-] | inactive: -14.4% |

| SMILES | growth rescue (activation) |
| --- | --- |
| COc1cc(/C=N/N=C2/NC(=O)C(CC(=O)O)S2)ccc1OCc1cccc(Cl)c1 (stereo not drawn) | inactive: 28.7% |
| COC(=O)CNc1cc(S(=O)(=O)N2CCCCC2)ccc1Oc1ccc(C(=O)OC)cc1 | inactive: -0.358% |
| Cc1ccc(NC(=O)N(CCCN2CCOCC2)Cc2cc3cc4c(cc3[nH]c2=O)OCO4)cc1 | inactive: -9.56% |
| Nc1ccc(Br)c[n+]1Cc1cccc2cccnc12 | inactive: -2.22% |
| O=C(CSc1ncnc2sccc12)Nc1ccc(S(=O)(=O)N2CCOCC2)cc1 | inactive: -2.78% |
| CCNC(=O)CN(c1ccc(Oc2ccccc2)cc1)S(=O)(=O)c1ccccc1 | inactive: 13.3% |
| Cc1cc(Cl)ccc1Oc1ccc(C(N)=O)cc1[N+](=O)[O-] | inactive: 11.3% |
| O=C(C1CCN(S(=O)(=O)c2ccc(Br)s2)CC1)N1CCN(C2CCCCC2)CC1 | inactive: 9.07% |
| CCOc1ccccc1C(C(=O)NC1CCCC1)N(C(=O)c1csnn1)C1CC1 (stereo not drawn) | inactive: 8.91% |
| O=C(/C=C/c1ccco1)Nc1cccnc1 | inactive: -6.71% |
| Cc1cccc(S(=O)(=O)Nc2ccc(-c3nc4ccc(C)cc4s3)cc2)c1 | inactive: -19.1% |
| Cc1cc(OCc2cc(C(=O)N3CCCCCC3)no2)cc(C)c1Cl | inactive: 13.8% |
| Cc1nn(CC(=O)OC(C)C(=O)Nc2ccccc2[N+](=O)[O-])c(C)c1[N+](=O)[O-] (stereo not drawn) | inactive: 6.13% |
| O=C(NCC1CCOCC1)c1cccc2c(-c3cccnc3)coc12 | inactive: 14.5% |
| CC1CCc2cc(F)cc3c(O)c(C(=O)NCc4ccco4)c(=O)n1c23 (stereo not drawn) | inactive: -5.74% |
| COCCNC(=O)/C(C#N)=C/c1cccc(NC(=O)c2ccccc2Cl)c1 | inactive: 8.52% |
| CC(C)(C)NC(=O)CN(C(=O)C1CSC(=O)C1)c1ccccc1F (stereo not drawn) | inactive: 6.4% |
| O=c1c([N+](=O)[O-])cccn1Cc1cccc(Br)c1 | inactive: 17.2% |
| CC1CCCN(c2ccc(C(=O)NCc3ccccc3)cn2)C1 (stereo not drawn) | inactive: 5.56% |
| COc1ccc(CNc2ccc([N+](=O)[O-])cc2C)cc1 | inactive: -0.833% |
| COc1ccccc1CN(C)C(=O)COC(=O)c1ccc(Cl)nc1 | inactive: 5.21% |
| CCCOc1cccc(C(=O)NC(=S)Nc2cccc(NC(=O)c3ccccc3Cl)c2)c1 | inactive: -0.62% |
| CC(C)(C)NC(=O)CN(CC1CCCO1)C(=O)CNS(=O)(=O)c1ccc(F)cc1 (stereo not drawn) | inactive: 6.54% |
| Cc1nc2c(OCc3ccc(Cl)cc3)cccn2c1N(C)C(=O)CCC1CCCC1 | inactive: 15.4% |
| COc1cc(CNC(=O)c2cc(-c3cc(OC)ccc3Cl)n[nH]2)cc(OC)c1 | inactive: 14.2% |
| O=c1c2ccccc2c(=O)n2n1Cc1ccccc1C2 | inactive: 26.2% |
